Measurements published in the RNAGym collection of RNA variant scans (doi:10.7554/elife.90254).
The source gives no read counts; variants with many changes may rest on few reads.

B1: LINE1-mini (parent)
chain: GGCAGAGCUCAACACAGCGUGGCAAAGUGGCUGUGGCUAGACUGCC

Variants of: B1
Test: self-cleavage, relative activity (ratio to wild type); higher = more cleavage; in vitro, sequencing; the parent is a self-cleaving ribozyme

Variant | self-cleavage
GUCAGCGCUCAACACAGCGGGGUAAAGUGGCUGUGGCUAGACUGCC [G2U A6C U20G C23U] | 0.06
GGCAGAGCUGAACAUACCGUCGCAAAGUGGCUGUGUGUAGACUGCU [C10G C15U G17C G21C G36U C37G C46U] | 0
GGCAGAGCCCAACACAGCGUGGCAAAGUGGCUCUGGCUAUACUGAC [U9C G33C G40U C45A] | 0.01
GGCAGAGCUCAACACAGAGUGGCAAAGUGGCUGUGGCUAAACUGCG [C18A G40A C46G] | 0.1
GGCAGAGGUCAACACAGCCUGGCAAAGUGGGUGUGGCUAGACUGCC [C8G G19C C31G] | 0.22
GGCAGAGCUCAACACAACGUGGCAAAGUGGCUGUGGUUAUACUGCC [G17A C37U G40U] | 0.05
GGCAGCGCUCAAUACGGCGUGGCAAAGUGGCUGUGGCUAUACUGCC [A6C C13U A16G G40U] | 0.04
GGCAGAGCUUAGCACAGCGUGGCAAAGUGGCUGUGGCUAGACUACC [C10U A12G G44A] | 0.01
GGCAGAGCUUAACAGAGCGUGCCAAAGUGGCUGUGGCUAGACUGCC [C10U C15G G22C] | 0.02
GGCAGAGCUCAACACAGCGUGGCAAUUUGGCUGUGGCUCGACUGCC [A26U G27U A39C] | 0.11
GGCAGAGCGCAACACUGCGUGGCAAAGUGGCUGUGGCUAGACUGAC [U9G A16U C45A] | 0.01
GGCAGAGCACAACCCAGCGUGGCAAGGUGGCUGUGGCUAGACUGCC [U9A A14C A26G] | 0.02
GGUAGAGCUCAACACAGCGUGGCAAAGUGACUGUGGCUAGACUGCG [C3U G30A C46G] | 0.11
GGCAGAGCCCAGAACAGCGCGGCAAAGUGGCUGUCGCUAGACUGCC [U9C A12G C13A U20C G35C] | 0.01
GGCAGAGCUCAACACAGCGUAGCAAAGUGGAUCUGGCUAGACUGCC [G21A C31A G33C] | 0.14
GGCCGAGCUCAACACAGCGUGCCAAAGUGGCUGUGGCUAGACUGCU [A4C G22C C46U] | 0.03
GGCAGAGCUCAAUACAGCGUGCCAAAGUUGCUGUGACUAGACUGCC [C13U G22C G29U G36A] | 0.13
CGCAGAGCUCAACACAGCGUGGUAAAGUGGCUGCGGCUAGACUGCC [G1C C23U U34C] | 0.01
GGCAGAGCUCAACUCUGCGUGGCUAAGUGGCUGUGGCUAGACUGCC [A14U A16U A24U] | 0.03

Variant | self-cleavage
GGCAGAGCUCAAUACAGCGUGGAAAAGUGGCUGUGGCUAGAAUGCU [C13U C23A C42A C46U] | 0.24
GGCAGUGCUCAACACAGUGUGGCAAAGUGCCUGUGGCUAGACUGCC [A6U C18U G30C] | 0.39
GGCAGAGCUCAACACAGCAUAGCAAGAUAGCUGUGGCUAGACUGCC [G19A G21A A26G G27A G29A] | 2.94
GGCAGGGCUCAACAAAGCGUGGCAAAGUGGAUGUGGCUAGACUGCC [A6G C15A C31A] | 0.05
GGCAGAGCUAAACACAGCCUGUCAAAGUGGCUGUGGCUAGACUGCC [C10A G19C G22U] | 0
GGCGGAGCUCAACACAACGUGGCAAAGUGGCUGUGGUUAGACUGCC [A4G G17A C37U] | 0.02
GUCAGCGCUCAACACAGCGUGGCAUAGUGACUGUGGGUAGACUGCC [G2U A6C A25U G30A C37G] | 0.02
GGCAGAGCUCCACACAGCGUGGCAAAGUGGCUGUUGCGAGACUGCC [A11C G35U U38G] | 0
UGCAGAGCUCAACACAGCGAGGCAAAGUGGAUGUGGCAAGACUGCC [G1U U20A C31A U38A] | 0
GGCAGAGAUCAACACAGCGUGGCAAAGUGGCUUUGGCUAGAUUGCC [C8A G33U C42U] | 0.08
GGCAGAGCUCGACACCGCGUGGCAAAGCGGCUGUGGCAAGACUGCA [A11G A16C U28C U38A C46A] | 0.01
GGCAGAGCUCAACGCAGCGUGGCAAAGUAGCUGUGGCCAGACUGCC [A14G G29A U38C] | 0.23
GGAAGAGUUCAACACAGCCUGGCCAAGUGGCUGUGGCUAGACUGCC [C3A C8U G19C A24C] | 0.14
CGCAGAGCUCAACACAGCGUGGCUAAGUUCCUGUGGCUAGACUGCU [G1C A24U G29U G30C C46U] | 0.04
GGCAGAGCUAAACACUGCGUGGCAAAGUGGCUGGGGCUAGACUGCC [C10A A16U U34G] | 0.03
GGCAGAGCUAACCACAGCGUGGCAAAGUGGCUGUGGGUAGAUUGCC [C10A A12C C37G C42U] | 0
GUCAGAGCUCAACACAGCGUGGCAAACUGGCUGUUGCUGGACUGCC [G2U G27C G35U A39G] | 0.03
GGCAGCGCUCAACAUAGCGUGACAAAGUGGAUGUGGCAAGACAGCC [A6C C15U G22A C31A U38A U43A] | 0.01
UGCAGAGCUCAACACAGCGUGGCAAAGUGGCUGCGGCUAGACUGUC [G1U U34C C45U] | 0.08

Variant | self-cleavage
GGAAGAGCUAAACACAGCGUGGCAAAGCGGCUGUGGCUAGACUGCC [C3A C10A U28C] | 0.07
GGCAGAGCUCAACAUAGCGUGGCAAAGUGGCUGUGGCGAUACUGCC [C15U U38G G40U] | 0.13
GGCAGAGCUCAACACAGCGUGGAAGAGCGGCUGUGGCAAGACUGCC [C23A A25G U28C U38A] | 0.09
GGCAGAGUUCAACACAGCGAGGCAAAGCGGCUGUAACUAGACUGUC [C8U U20A U28C G35A G36A C45U] | 0.03
GGCAGAACUCAACACAGCGUGGCAAAGUGGCUGUGUCAAGACUGCC [G7A G36U U38A] | 0.02
GGCUGAGUUCAAUACAGCGUGGCAAAGUGGCUGUGGCUAGUCUUCC [A4U C8U C13U A41U G44U] | 0.64
GGCAGAGGUCAACACAGCGUGGUAAAGUGGCUGUGGCUAGACUGAC [C8G C23U C45A] | 0.07
GACAGAGCUCAACACAGCGUGGCAAAGUGGCUGUGGCUAAAGUGCC [G2A G40A C42G] | 0.28
GGCAGAGCUGAACACAGCGUCGCAAAGUGGCUAUGGCUAGACUGCC [C10G G21C G33A] | 0.04
GGCAUAGCUCAACACAGCGUGGCAAAGUGGGUGUGGCGAUACUGCC [G5U C31G U38G G40U] | 0.01
GGCAGAGCUCAAGACAGCGUGGCAAAAUCGCUGUGGCUAGACUGCC [C13G G27A G29C] | 0.09
GGCAGAGCUCAACACAGCUUGGCAAAGUAGCAGUGGUUAGACUGCG [G19U G29A U32A C37U C46G] | 0.04
GGCAGAGCUGAACACAGCGGGGCAAAGUGGCUGUGGCGAGACUGCC [C10G U20G U38G] | 0
GGCAGAGCUCAACAAAGCCUGGGAAAGUGGCUGUGGCUAUACUGCC [C15A G19C C23G G40U] | 0.02
GGCAGAGCUCAAUACUUCGUGGCAAUGUUGCUGUGGCUAGACAGCC [C13U A16U G17U A26U G29U U43A] | 0.04
GGCAGUGCUCAACACAGCGUGGUAAAGAGGCUGAGGCUAGAAUGAC [A6U C23U U28A U34A C42A C45A] | 0.06
GGCAGAGCUCAUCACAGCGUGGUAAAGUACCUGUGGCUAGUCUGCC [A12U C23U G29A G30C A41U] | 0.2
GGCAGACCUCAACACAGCAUGGUAAAGUGUCUGUGGCUAGACUGCC [G7C G19A C23U G30U] | 0.01
